{"source": "PubChem BioAssay AID488969", "about": "(Vanderbilt High Throughput Screening Facility, 2010)", "note": "Whole data set: some 110,000 compounds, median “z-score” near -0.1, cut for the highest 2% near 2. Some of the results follow. The source made the active and inactive calls.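 The calls were made as follows: active = z-score in the third read window above 3 or below -3; inactive = the rest.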"}
{"molecular_target": "Metabotropic glutamate receptor 8 (Rattus norvegicus) (UniProt P70579)", "sequence (P70579 whole entry, looked up)": "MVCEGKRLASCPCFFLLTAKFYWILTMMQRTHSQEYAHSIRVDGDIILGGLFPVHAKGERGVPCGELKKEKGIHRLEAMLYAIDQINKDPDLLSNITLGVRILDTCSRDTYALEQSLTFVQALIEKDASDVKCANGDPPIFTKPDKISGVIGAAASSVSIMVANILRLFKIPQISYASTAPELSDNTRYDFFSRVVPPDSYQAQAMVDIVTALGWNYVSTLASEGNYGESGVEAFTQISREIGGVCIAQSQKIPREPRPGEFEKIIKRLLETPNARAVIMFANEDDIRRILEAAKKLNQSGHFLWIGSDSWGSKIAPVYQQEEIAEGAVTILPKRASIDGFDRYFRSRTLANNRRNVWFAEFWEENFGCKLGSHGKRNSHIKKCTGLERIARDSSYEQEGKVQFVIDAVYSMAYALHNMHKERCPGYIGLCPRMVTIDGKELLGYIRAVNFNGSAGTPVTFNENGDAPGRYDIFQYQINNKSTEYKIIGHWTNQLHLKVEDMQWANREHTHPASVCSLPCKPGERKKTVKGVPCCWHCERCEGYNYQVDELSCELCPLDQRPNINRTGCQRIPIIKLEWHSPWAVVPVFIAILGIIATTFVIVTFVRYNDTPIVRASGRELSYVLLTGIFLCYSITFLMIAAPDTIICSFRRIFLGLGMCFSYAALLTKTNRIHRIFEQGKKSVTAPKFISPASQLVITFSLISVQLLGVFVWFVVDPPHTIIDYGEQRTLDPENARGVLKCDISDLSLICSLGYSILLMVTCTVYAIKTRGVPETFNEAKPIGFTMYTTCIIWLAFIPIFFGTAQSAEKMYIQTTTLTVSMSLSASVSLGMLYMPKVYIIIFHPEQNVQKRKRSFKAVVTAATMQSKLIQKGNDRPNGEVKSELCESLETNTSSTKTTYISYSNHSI", "test": "rat mGluR8 modulators via GIRK flux, primary screen, cell-based, thallium flux, HTS (AID 488969)", "conditions": "HEK293 rat mGluR8, GIRK (G protein-gated inwardly rectifying potassium channel) thallium flux, FluoZin2; at 10 µM; stronger effect = higher value; submaximal glutamate (EC20) added with thallium"}
{"smiles": "C#CC(CC)(CC)NC(=S)Nc1cccc(C(C)=O)c1", "z-score": -0.3}
{"smiles": "O=C(COc1ccc(Cl)cc1)N1CCN(C(=O)c2cccc(F)c2)CC1", "z-score": 0.465}
{"smiles": "Cc1ccc(NC(=O)c2cc(C)n(-c3cccc(C)c3)c2C)cc1", "z-score": -0.253}
{"smiles": "COc1cccc(N(CC(=O)Nc2ccc3c(c2)OCO3)S(=O)(=O)c2ccccc2)c1", "z-score": 0.127}
{"smiles": "CCOC(=O)C1=C(C)NC2=C(C(=O)C(C(=O)OCC)C(c3ccccc3OC)C2)C1c1ccccn1", "note": "(centres undefined)", "z-score": "active: -3.33"}
{"smiles": "COCCN=C1Sc2nc3ccc(C)cc3cc2CN1Cc1ccco1", "z-score": -0.504}
{"smiles": "COC(=O)c1ccccc1NC(=O)N1c2ccccc2CC1C", "note": "(centres undefined)", "z-score": -0.864}
{"smiles": "O=[N+]([O-])c1ccc(N2CCN(S(=O)(=O)c3ccccc3)CC2)cc1N1CCc2ccccc2C1", "z-score": -0.106}
{"smiles": "CCC(=O)c1cc2c(C)cc(=O)oc2c(C)c1OC", "z-score": -0.439}
{"smiles": "Cn1c(-c2ccccc2)cnc1SCC(N)=O", "z-score": 0.64}
{"smiles": "COc1ccc(CN(C(=O)c2nsc(Cl)c2Cl)C(C(=O)NC2CCCC2)c2ccc(OC)cc2)cc1", "note": "(centres undefined)", "z-score": -0.361}
{"smiles": "Cn1nnc(NC(=O)COc2ccc(C3CCCCC3)cc2)n1", "z-score": 0.85}
{"smiles": "COc1ccc(C2(CNC(=O)c3cccc([N+](=O)[O-])c3)CCCCC2)cc1OC", "z-score": -0.559}
{"smiles": "Cc1cc(C)nc(SCC(=O)N/N=C/c2cccn2-c2cccc(C(F)(F)F)c2)n1", "z-score": 0.12}
{"smiles": "CN(C)C(=O)CN(c1ccc(F)c(Cl)c1)S(C)(=O)=O", "z-score": 0.00105}
{"smiles": "Cc1ccccc1OCc1nc2c3cnn(C)c3ncn2n1", "z-score": 0.676}
{"smiles": "Oc1ccc(N=Cc2sc3ccccc3c2Cl)cc1", "z-score": -0.0453}
{"smiles": "CCOC(=O)C(NC(=O)c1ccc(OC)cc1)(OCC1(CC)COC1)C(F)(F)F", "note": "(centres undefined)", "z-score": 0.00709}
{"smiles": "NNC(=O)[C@@H]1C[C@@H]1c1ccccc1", "z-score": 0.0986}
{"smiles": "c1ccc(-n2ncc3c(N4CCCC4)ncnc32)cc1", "z-score": -0.503}
{"smiles": "CC(=O)NC(Cc1ccc(F)cc1)C(=O)NC1CCN(c2nnnn2-c2ccccc2)CC1", "note": "(centres undefined)", "z-score": -1.58}
{"smiles": "CCCn1cnc2c(=O)oc3ccccc3c21", "z-score": -0.399}
{"smiles": "CCCCN1C(=O)C(CC(=O)NCC)SC1=Nc1ccccc1", "note": "(centres undefined)", "z-score": -0.0975}
{"smiles": "CC(=O)c1ccc(NC(=O)c2ccc(COc3ccccc3[N+](=O)[O-])o2)cc1", "z-score": -0.417}
{"smiles": "CN=Cc1nc(-c2ccccc2)oc1O", "z-score": 1.62}
{"smiles": "COc1ccccc1/C=C/C(=O)c1cc(Br)ccc1OC(=O)c1ccco1", "z-score": -0.11}
{"smiles": "CCOC(=O)C(C(=O)OCC)C(C)C#CCN1CCCCC1", "note": "(centres undefined)", "z-score": -0.145}
{"smiles": "CC1(C)CC(O)(CNCc2ccc3c(c2)OCO3)CCO1", "note": "(centres undefined)", "z-score": 0.108}
{"smiles": "CCC(=O)N/C(=N/c1nc(C)cc(C)n1)Nc1cccc(OC)c1", "z-score": 0.0375}
{"smiles": "COC(=O)c1ccc(N=C2S/C(=C\\c3cc(C)n(-c4cccnc4)c3C)C(=O)N2C)cc1", "z-score": 0.0719}
{"smiles": "CCOC(=O)C(C)/C(C)=N/NC(=O)c1cc2ccccc2cc1O", "note": "(centres undefined)", "z-score": -0.195}
{"smiles": "COc1ccccc1C(=O)N/N=C/c1ccc(Cl)s1", "z-score": -0.273}
{"smiles": "CN1CCN(S(=O)(=O)c2ccc(NC(=O)c3ccc(Br)s3)cc2)CC1", "z-score": 0.431}
{"smiles": "O=C(Nc1ccc(Cl)cc1)OCCn1nnnc1C(c1ccccc1)N1CCOCC1", "note": "(centres undefined)", "z-score": -0.796}
